Hit rate of the full screen: of about 52,000 compounds, about 1,700 (3.3%) were called active. Cut-off read from the data, not from the text of the source: active = survival mostly below about 52% (no sharp cut-off); inactive = mostly above about 56%. The list shows a part of the results.

This test concerns Wild type. Nature of the test: S. aureus survival, RN4220 and DeltatarO strains – OD600, teichoic acid synthesis inhibitors, primary screen (AID 463173). The note with it: S. aureus RN4220 wild type/DeltatarO growth, OD600, 18 h, stronger effect = lower value, screened at 18.75 µg/mL (by protocol).
Regarding `COC(=O)c1ccccc1NC(=O)c1ccc(=O)n(Cc2cccc(C)c2)c1`, the survival is inactive: 71%.

For the compound `N#Cc1cccc(NC(=O)C2CCN(c3nc(-c4ccc(Cl)cc4)no3)CC2)c1`, the survival was inactive: 99%.

For `Cc1c(C(=O)Nc2cccc(-c3nc4ccccc4s3)c2)oc2ccc(F)cc12`, the survival is inactive: 75%.

As for `Cc1cccc(NC(=O)CC2Nc3ccccc3NC2=O)c1` (centres undefined), the survival was inactive: 128%.

With `COc1cc(-c2nc(C(N)=O)c3c(n2)n(-c2cccc(C)c2)c(=O)n3C)cc(OC)c1OC`, the survival was inactive: 69%.

On to `CCn1c(CN2CCCCC2)nc2cc(NC(=O)c3cccc([N+](=O)[O-])c3)ccc21`, for which the survival was inactive: 84%.

Turning to `CC(C)c1ccc(NC(=O)Cn2c3ncccc3c(=O)n2-c2ccccc2)cc1`, the survival was inactive: 74%.

As for `CCOc1ccc(-c2nnc(SCC(=O)Nc3cc(C)ccc3OC)o2)cc1`, the survival was inactive: 77%.

Take `CCC(=O)N1CCc2cc(CNC(=O)c3cccc(N(C)C)c3)ccc21`: the survival was inactive: 82%.

Take `COc1ccc(C(=O)NCc2ccc3c(c2)CCN3C(C)=O)c(OC)c1`: the survival was inactive: 115%.

As for `Cc1ccccc1NC(=O)C1CCN(S(=O)(=O)c2c(C)noc2/C=C/c2ccco2)CC1`, the survival is inactive: 81%.

On to `CCc1ccccc1NC(=O)Cn1nc(CC)n2c(cc3sccc32)c1=O`, for which the survival is inactive: 86%.

With `CCc1ccccc1N1C(=O)CN(S(=O)(=O)CC)CC1(C)C(=O)NC1CCCCC1` (centres undefined), the survival was inactive: 124%.

For the compound `CCC(=O)OC1=C(C(C)=O)N(Cc2ccccc2)S(=O)(=O)c2ccccc21`, the survival is inactive: 71%.

For `Cc1ccc(Cn2c(SCc3ccc(C(=O)N4CCCCC4)cc3)nc3ccncc32)cc1`, the survival was inactive: 35%.

In the case of `COc1cccc(C(c2nnnn2CCC(C)C)N2CCN(Cc3ccccc3)CC2)c1OC` (centres undefined), the survival is inactive: 113%.

As to `Cc1ccc(-c2c3c(=O)n(C)c(=O)n(C)c3c3n2-c2ccccc2NC3c2ccc(C)cc2O)cc1` (centres undefined), the survival is active: -8%.

Regarding `COc1ccc(-c2cc(C(=O)N3CCCCC3C)no2)cc1OC` (centres undefined), the survival is inactive: 70%.

As to `CCOc1ccc(OCC)c(NC(=O)c2nnn(CC(=O)Nc3cc(Cl)ccc3OC)c2N)c1`, the survival is inactive: 71%.

Turning to `Cc1ccc(Cl)cc1N1CCN(S(=O)(=O)c2cn(C)c(C)n2)CC1`, the survival is inactive: 65%.

Consider `O=C(COc1ccccc1)Nc1nnc(S(=O)(=O)Nc2ccccc2)s1`, for which the survival is inactive: 84%.

Regarding `CN(C(=O)CSc1nc(-c2ccccc2)no1)c1ccc(F)cc1`, the survival is inactive: 72%.

With `COc1ccc(C(=O)c2sc3nc4c(c(C(F)(F)F)c3c2N)CN(C(C)=O)CC4)cc1OC`, the survival was inactive: 82%.

Consider `CC1CCCCN1CCCNC(=O)CN1C(=O)c2cccnc2Oc2ccc(Cl)cc21` (centres undefined), for which the survival is inactive: 68%.

In the case of `CCOc1ccccc1C1C(C(=O)Nc2ccccc2)=C(C)Nc2nc(SCC(=O)c3ccc(C)cc3)nn21` (centres undefined), the survival is inactive: 73%.

`O=C(c1ccc(Cl)cc1)N1CCN(CCc2ccncc2)CC1`: the survival is inactive: 113%.

For `CCOc1ccccc1NC(=O)Nc1nnc(N2CCCC(C)C2)s1` (centres undefined), the survival was inactive: 87%.

For the compound `Cc1ccc(-c2nnc(Nc3cccc(Cl)c3)c3ccccc23)cc1S(=O)(=O)N1CCN(C)CC1`, the survival is inactive: 68%.

Consider `CCN(Cc1ccccc1)c1ncnc2c1cnn2-c1ccc(F)cc1`, for which the survival was inactive: 55%.

Turning to `CCOc1ccc(Nc2cc(C(=O)NCc3ccccc3Cl)c3ccccc3n2)cc1`, the survival was inactive: 92%.

In the case of `Cc1cccc(NC(=O)Cn2c(=O)n(CCCCCC(=O)NCc3ccccc3)c(=O)c3sccc32)c1`, the survival is inactive: 72%.

For the compound `CCOc1ccc(CNC(=O)C2CCN(C(=O)c3ccc(-n4ccc5ccccc54)s3)CC2)cc1`, the survival was inactive: 111%.

`CCOC(=O)N1CCN(C(=O)c2ccc3c(c2)N(Cc2ccccc2F)C(=O)c2ccccc2S3(=O)=O)CC1`: the survival was inactive: 82%.

As to `O=C(COc1ccccc1)NCC(c1ccc(Cl)cc1)N1CCCCC1` (centres undefined), the survival was inactive: 85%.

As for `N#Cc1ccc(N2CCCCC2)cc1`, the survival was inactive: 119%.

As for `O=C(CCCc1ccccc1)NC1CC(=O)N(c2cccc(F)c2)C1` (centres undefined), the survival is inactive: 128%.

Regarding `Cc1ccc(C)c(N2CCN(S(=O)(=O)c3c(C(=O)N4CCC(C)CC4)c(C)n(C)c3C)CC2)c1`, the survival was inactive: 83%.

Regarding `CN(C)N=Nc1ccc(-c2cn(Cc3ccccc3)cn2)cc1`, the survival is inactive: 100%.

Consider `Fc1ccc(C(c2nnnn2C2CCCC2)N2CCc3ccccc32)cc1` (centres undefined), for which the survival is inactive: 122%.

For `CCc1ccc(NC(=O)CSc2nc3c(c(=O)[nH]2)CN(Cc2ccc4c(c2)OCO4)CC3)cc1`, the survival was inactive: 79%.

For `O=C(Nc1ccc(Br)c(Cl)c1)c1ccc(C(=O)Nc2ccc(Br)c(Cl)c2)cc1`, the survival was inactive: 130%.

On to `CCOC(=O)c1cc2c(=O)n3ccccc3nc2n(C)c1=NC(=O)c1c(-c2c(F)cccc2Cl)noc1C`, for which the survival is inactive: 142%.

For `CCCCCn1c(CCCNC(=O)c2ccc(Cl)cc2)nc2ccccc21`, the survival is inactive: 90%.

For `COC(=O)C1=C(C)N(C(C)C)C(=O)C1(NC(=O)c1ccccc1OC)C(F)(F)F` (centres undefined), the survival was inactive: 74%.

As for `COc1ccccc1CNC(=O)C(=O)NCC(c1ccco1)S(=O)(=O)c1ccc(C)cc1` (centres undefined), the survival is inactive: 72%.

In the case of `COc1ccc(CNC(=O)CCc2nnc3n(C)c(=O)c4sccc4n23)cc1`, the survival is inactive: 147%.

For the compound `COc1ccc(-c2nc(C(=O)Nc3cccc(C(C)=O)c3)nn2-c2ccccc2Cl)cc1`, the survival is inactive: 80%.

As to `COc1ccc(N2CCN(C(=O)c3cc4c(=O)n(Cc5ccco5)ccc4nc3C)CC2)cc1`, the survival is inactive: 89%.

As for `COCCCNC(=O)c1cc2c(-c3cccc(OC)c3)nn(C)c2s1`, the survival is inactive: 84%.

Consider `O=C(CSc1nccn1Cc1ccc(Cl)cc1)Nc1nc2ccccc2s1`, for which the survival was active: 0%.

`CCC(=O)N1CCc2cc(Br)cc(S(=O)(=O)Nc3ccccc3C(=O)OC)c21`: the survival is inactive: 136%.

Consider `CCOc1cc(-c2nc(-c3ccc(-c4ccccc4)nc3OCC)no2)cc(OCC)c1OCC`, for which the survival was inactive: 60%.

For `O=C(NCc1ccccc1Cl)c1ccccc1NC(=O)c1nsc2ccccc12`, the survival was inactive: 67%.

In the case of `COc1cc(OC)c(NC(=O)c2cnn(-c3ccccc3)c2-n2cccc2)cc1Cl`, the survival was inactive: 80%.

`CCc1ccc(NC(=O)c2cc(S(=O)(=O)N3CCCC(C)C3)cn2C)cc1` (centres undefined): the survival was inactive: 88%.

Regarding `Cc1ccccc1CCNC(=O)c1ccc(Cn2c(=O)c3cccn3c3cccnc32)cc1`, the survival is inactive: 95%.

In the case of `COc1cc(CN(C(=O)COc2ccc(F)cc2)c2ccccn2)cc(OC)c1OC`, the survival is inactive: 85%.

With `CCOc1ccc(OCC(=O)Nc2ccc(S(=O)(=O)Nc3cc(C)on3)cc2)cc1`, the survival is inactive: 62%.

On to `COc1cc(NC(=O)CCN2CCN(CCO)CC2)cc(OC)c1`, for which the survival is inactive: 139%.

For the compound `COc1ccc(CCNC(=O)C2COc3ccccc3O2)cc1` (centres undefined), the survival was inactive: 113%.

On to `Cc1cc(OCC(=O)N(C)c2ccccc2)cc(C)c1Cl`, for which the survival was inactive: 116%.

As to `Cc1ccc(C)c(N2CCN(C(=O)c3cc(C)nc4c3c(C)nn4-c3ccccc3)CC2)c1`, the survival was inactive: 134%.

On to `Cc1ccc(N2CC(C(=O)NC3CC3)CC2=O)cc1Cl` (centres undefined), for which the survival was inactive: 101%.

Take `O=C(NC1CCCC1)C(c1ccncc1)N(Cc1ccco1)C(=O)Cn1nnc(-c2ccc(Cl)cc2)n1` (centres undefined): the survival was inactive: 96%.

Consider `CCc1nn(CC(=O)NCCc2ccc(SC)cc2)c(=O)c2cc3sccc3n12`, for which the survival was inactive: 136%.

As to `CCCc1cc(=O)n2[nH]c(NCc3c(F)cccc3Cl)nc2n1`, the survival was inactive: 88%.

On to `COc1ccc(N2CCN(S(=O)(=O)c3ccc4c(c3)C(C(C)C)C(=O)N4)CC2)cc1` (centres undefined), for which the survival was inactive: 140%.

With `Cc1nc2cc(-c3cccc(F)c3)nn2c(C)c1CCC(=O)NCCc1ccccc1`, the survival was inactive: 128%.

On to `N#Cc1cn(-c2ccccc2)nc1-c1cccnc1`, for which the survival was inactive: 121%.

`COC(=O)CSc1nnc(COc2cccc3ccccc23)o1`: the survival is inactive: 105%.

For `Cc1ccc(NC(=O)c2ccc(=O)n(CC(=O)Nc3ccccc3)n2)cc1`, the survival was inactive: 58%.

Take `CCOC(=O)COc1ccc(-c2nnn(CC(=O)Nc3ccccc3)n2)cc1`: the survival was inactive: 105%.

Turning to `Cn1c(=O)c2sccc2n2c(CCCC(=O)Nc3ccc(Oc4ccccc4)cc3)nnc12`, the survival was inactive: 75%.

`Cc1sc2c(c1C)c(=O)n(CCc1ccccc1)c(=O)n2Cc1ccc(C(C)(C)C)cc1`: the survival is inactive: 85%.

With `Cc1ccc(C)c(NC(=O)C2CCN(S(=O)(=O)c3c(C)noc3/C=C/c3cccs3)CC2)c1`, the survival is inactive: 88%.

In the case of `CCn1c(CNC(=O)c2ccc(OC)cc2)nnc1SCC(=O)Nc1cc(C)ccc1C`, the survival is inactive: 118%.

In the case of `Cn1c(/C(C#N)=C/c2ccccc2Br)nc2ccccc21`, the survival is inactive: 86%.

In the case of `CCc1c(C)c2ccc(O)c(CN3CCN(c4ccc(F)cc4)CC3)c2oc1=O`, the survival was inactive: 75%.

For the compound `COc1ccccc1C(=O)NCc1nc2cccnc2n1Cc1ccc(F)cc1`, the survival is inactive: 67%.

Consider `CN1/C(=c2/sc(=C3C(=O)NC(=S)NC3=O)n(C)c2=O)Sc2ccccc21`, for which the survival is inactive: 104%.

For the compound `CCc1cccc(NS(=O)(=O)c2ccc3c(c2)CC(C)N3C(=O)C2CC2)c1` (centres undefined), the survival is inactive: 80%.

Turning to `CCN=C1S/C(=C\c2cn(CC(=O)NCc3ccco3)c3ccccc23)C(=O)N1CC`, the survival was inactive: 115%.

Consider `COc1ccc(S(=O)(=O)N2Cc3ccccc3CC2C(=O)Nc2cc(Cl)ccc2Cl)cc1` (centres undefined), for which the survival is inactive: 78%.

On to `COc1ccccc1OCc1ccc(C(=O)NCc2ccncc2)o1`, for which the survival was inactive: 116%.

For `COc1ccc(Cl)cc1NC(=O)CSc1nccn1-c1ccc(Cl)cc1`, the survival is inactive: 66%.

Take `CCOCN(C(=O)Cn1c(COC)nc2ccccc21)c1c(C)cccc1CC`: the survival was inactive: 111%.

Turning to `N#CC(C#N)=Cc1cn(CCCOc2ccccc2Cl)c2ccccc12`, the survival is inactive: 97%.

On to `COc1ccc(C(=O)NCCn2cc(SCc3ccc(C(F)(F)F)cc3)c3ccccc32)cc1OC`, for which the survival is inactive: 96%.

As to `COc1cccc(CNC(=O)C2CCCN(S(=O)(=O)N(C)c3ccc(F)cc3)C2)c1OC` (centres undefined), the survival is inactive: 88%.

The record behind these values is PubChem BioAssay AID463173 (ICCB-Longwood Screening Facility, Harvard Medical School, 2010).
